Out of some 420,000 compounds screened, about 50,000 (12%) were called active. The inconclusive results got no clear call from the source; some entries with a clear call stand among them for comparison. The call rests on the fitted dose curve; in most records, active means well fitted inhibition curve with a large enough effect; inconclusive means small, poorly fitted or top-dose-only effect; inactive means flat fitted curve, though single readings scatter. No potency is given beside an inconclusive call; the fits are too rough.
Test: qHTS for Inhibitors of human tyrosyl-DNA phosphodiesterase 1 (TDP1): qHTS in cells in presence of CPT; further: nearly all actives have a fitted effect of over 55% in size
Conditions: chicken DT40 Tdp1-/-;hTDP1 cells + 20 nM CPT, ATP luminescence, 48 h; activity change, negative = growth inhibition: at 46.2 µM (top of the series) unless noted
Procedure, shortened: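 Chicken DT40 Tdp1-/- cells complemented with human TDP1, 400 cells/well, exposed to compounds plus 20 nM camptothecin for at least 48 h at 37 C; viability read as ATP content by CellTiter-Glo luminescence.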
For CCOC(=O)N1CCN(C(=O)c2ccc3c(=O)n(-c4ccc(OC)cc4OC)c(=S)[nH]c3c2)CC1, the “activity change, negative = growth inhibition” value was inactive: -28.1%. In the case of Cc1cc(C)c(S(=O)(=O)Nc2cnc3ccccc3c2)c(C)c1, the Potency is reported as inconclusive [inhibitor, single point]. In the case of O=C(O)C1CCN(S(=O)(=O)c2ccc(N3CCC(O)CC3)c([N+](=O)[O-])c2)CC1, the “activity change, negative = growth inhibition” value is reported as inactive: 6.37%. In the case of CCC1=C2CC[C@H]3C(=O)N(c4ccccc4)C(=O)[C@H]3[C@H]2[C@@]2(C)C(=NCc3ccccc3)OC(=O)N2C1=O, the Potency is reported as inconclusive [inhibitor, single point]. In the case of CCc1nc2ccc(C(=O)NCCCN(C)C)cn2c1N(C)CCCc1ccccc1, the Potency is reported as inconclusive [inhibitor, single point]. In the case of Nc1ccc(Nc2ccncc2[N+](=O)[O-])cc1, the “activity change, negative = growth inhibition” value is reported as inactive: -20.7%. With CCc1ccc(S(=O)(=O)c2nnn3c2nc(N2CCOCC2)c2sccc23)cc1 the “activity change, negative = growth inhibition” value was inactive: -8.63%. For OCC[C@@H]1C[C@@H](O)[C@H](O)[C@@]2(CCCc3ccccc3O2)O1, the “activity change, negative = growth inhibition” value was inactive: -4.05%. With Cc1cc(C(=O)CSc2ccc(F)cc2)cc(C)c1O the Potency was inconclusive [inhibitor, single point]. With Cc1cccc(-n2nnc(C(=O)NC3CCCc4ccccc43)c2N)c1 (configuration not stated) the Potency was inconclusive [inhibitor, single point]. With COc1cc(C(=O)NCCOc2ccccc2C)cc(OC)c1OC the Potency was inconclusive [inhibitor, single point]. In the case of CCn1c(-c2ccc(N)cc2)nc2ccccc21, the “activity change, negative = growth inhibition” value is reported as inactive: 1.61%. For CCN(c1ccccc1)S(=O)(=O)c1ccc(OC)c(NC(=O)C2CCC2)c1, the Potency was inconclusive [inhibitor, single point]. For CC1(C(=O)NS(=O)(=O)c2ccccc2Cl)CCN1C(=O)Cc1ccc(Cl)cc1Cl (configuration not stated), the “activity change, negative = growth inhibition” value was inactive: 4.94%. For Cc1ccc(OC(=O)c2ccncc2)c(C)c1, the “activity change, negative = growth inhibition” value was inactive: 1.18%. For CC(C)(O)C#Cc1ccc(C(=O)N2CCN(c3ccccc3)CC2)cc1, the Potency was inconclusive [inhibitor, single point]. In the case of O=C(Cc1ccccc1)NNc1ccc2ccccc2c1, the “activity change, negative = growth inhibition” value is reported as inactive: -9.13%. For CC(=O)c1ccc(Cc2ccc(C(C)=O)s2)s1, the “activity change, negative = growth inhibition” value was inactive: -24.9%. With Cc1ccc(C)c(NC(=O)c2ccc(S(=O)(=O)N(C)CC3CCCO3)cc2)c1 (configuration not stated) the Potency was inconclusive [inhibitor, partial curve]. With Cc1cc(N2CCC(C(=O)Nc3ccc(F)cc3C)CC2)n2nc(C)c(-c3ccc(Cl)cc3)c2n1 the Potency was inconclusive [inhibitor, single point]. In the case of CN(CC(=O)Nc1cccc(F)c1)C(=O)CCSc1ccc(F)cc1, the Potency is reported as inconclusive [inhibitor, partial curve, poor fit]. In the case of CN1CCN(c2nc(C(N)=O)cc(-c3ccccc3)n2)CC1, the “activity change, negative = growth inhibition” value is reported as inactive: -5.24%. In the case of Cc1ccc(OCC(=O)NCc2ccco2)cc1C, the “activity change, negative = growth inhibition” value is reported as inactive: -14.8%. With CC(=O)Nc1ccc(S(=O)(=O)N(CC(=O)NCC2CCCO2)Cc2ccccc2Cl)cc1 (configuration not stated) the “activity change, negative = growth inhibition” value was inactive: -22.8%. With CC1(C(=O)NS(=O)(=O)c2ccccc2OC(F)(F)F)CCN1C(=O)Cc1ccccc1 (configuration not stated) the “activity change, negative = growth inhibition” value was inactive: 0.604%. For Cc1ccc2[nH]c(=O)c(CN3CCCCC3)c(-c3ccccc3)c2c1, the Potency was inconclusive [inhibitor, single point]. With Cc1cc(Br)ccc1NC(=O)C1CCCN(S(=O)(=O)c2cccc3nonc23)C1 (configuration not stated) the Potency was inconclusive [inhibitor, full curve, poor fit]. In the case of Cc1cc(-c2ccccc2)n2nc(-c3ccc(Cl)cc3)cc2n1, the “activity change, negative = growth inhibition” value is reported as inactive: -26.2%. With COC(=O)[C@]12CCCCC=C1N(CCC1=CCCCC1)C(=O)[C@H](CC(=O)NCCc1ccccc1OC)C2 the Potency was active: 16.4 µM. In the case of CN(C)/C=N/S(=O)(=O)c1ccc(Cl)c(Cl)c1, the “activity change, negative = growth inhibition” value is reported as inactive: 7.06%. For N#CC1=C(N)SC(N)=C(C#N)C1c1c(Cl)cccc1Cl, the Potency was inconclusive [inhibitor, single point]. In the case of CCCCNC(=O)C(CC)(ONc1ccccc1C(F)(F)F)c1ccccc1 (configuration not stated), the Potency is reported as inconclusive [inhibitor, single point]. With CCC(C)C(CO)NCCCn1cnc(C(=O)Nc2ccc(C)c(C)c2)n1 (configuration not stated) the Potency was inconclusive [inhibitor, partial curve]. For CNC(=S)N1N=C(c2ccc(Br)cc2)CC1c1ccc(Br)cc1 (configuration not stated), the Potency was active: 14.6 µM. With CC1CCCC(NC(=O)CN2CCN(S(=O)(=O)c3ccc(Br)s3)CC2)C1C (configuration not stated) the Potency was inconclusive [inhibitor, single point]. With COc1cc(/C=N/NC(=O)c2cccnc2)ccc1OC(=O)c1cc(OC)c(OC)c(OC)c1 the “activity change, negative = growth inhibition” value was inactive: -18.6%. In the case of CCCn1c(=O)c(C(=O)NCCc2ccc(OC)cc2)c(O)c2ccccc21, the Potency is reported as inconclusive [inhibitor, single point]. In the case of COc1ccc(S(=O)(=O)Nc2cccc(-c3ccc4nncn4n3)c2)c(OC)c1, the Potency is reported as inconclusive [inhibitor, partial curve, poor fit]. With CN(c1ccccc1)S(=O)(=O)c1cccc(NC(=O)CCNC(=O)c2ccc(Cl)cc2)c1 the Potency was active: 23.1 µM. For Cc1ccnc(NC(=O)c2ccc([N+](=O)[O-])o2)c1, the Potency was active: 20.6 µM. In the case of COC(=O)c1cc(C(=O)OCC(=O)NC2CCCC2)cc([N+](=O)[O-])c1, the “activity change, negative = growth inhibition” value is reported as inactive: 4.82%. In the case of NC(Cc1ccc(F)cc1)c1csc(NC(=O)NC(c2ccccc2)c2ccccc2)n1 (configuration not stated), the Potency is reported as active: 14.6 µM. For C[C@]12c3[nH]c4ccc(Cl)cc4c3CCN1C(=O)[C@@H](CC(=O)NCc1cccc(C(F)(F)F)c1)C[C@@H]2C(=O)N1CCOCC1, the Potency was inconclusive [inhibitor, single point]. For Cn1cc(CNCc2ccc(-n3cccn3)cc2)c(-c2ccccc2F)n1, the Potency was inconclusive [inhibitor, partial curve, poor fit]. For O=C(CSCc1ccc(Br)cc1)Nc1ccc(S(=O)(=O)N2CCCCCC2)cc1, the Potency was inconclusive [inhibitor, single point]. In the case of O=C1CCC(CCC(=O)N2CCCC(C(=O)c3ccc(Cl)cc3)C2)=NN1 (configuration not stated), the “activity change, negative = growth inhibition” value is reported as inactive: -1.89%. For Cc1ccc(NC(=O)C(C)OC(=O)c2ccc(NS(=O)(=O)c3ccc(F)c(F)c3)cc2)cc1 (configuration not stated), the Potency was inconclusive [inhibitor, partial curve]. With COc1cc(Cl)c(NC(=O)c2cc(S(=O)(=O)N3CCCCC3)c[nH]2)c(OC)c1 the “activity change, negative = growth inhibition” value was inactive: -13.4%. In the case of CC(=O)c1cccc(NS(=O)(=O)c2cc(-c3onc(C)c3C)ccc2C)c1, the Potency is reported as inconclusive [inhibitor, single point]. For Cc1ccc(NC(=O)c2ncn(CC(=O)N3CCN(c4ccccn4)CC3)n2)cc1C, the Potency was inconclusive [inhibitor, single point]. For O=C(c1ccc(Cl)c(S(=O)(=O)N2CCOCC2)c1)N1CCOCC1, the “activity change, negative = growth inhibition” value was inactive: 0.379%. In the case of CCCCCCCC/C=C\CCCCCCCCOC[C@H](COP(=O)([O-])OCC[N+](C)(C)C)OC(C)=O, the activity change, negative = growth inhibition is reported as inactive: 6.54% [at 4.12 µM]. In the case of O=C(Nc1ncn[nH]1)c1cccc(S(=O)(=O)N2CCOCC2)c1, the “activity change, negative = growth inhibition” value is reported as inactive: 9.97%. For OCCN(CCO)c1ccc(/C=C/c2ccnc3ccccc23)cc1, the Potency was active: 8.91 µM. With COc1ccc(-c2cc(CCCC(=O)NCCc3ccccc3)no2)cc1 the Potency was inconclusive [inhibitor, single point]. In the case of Cc1ccc(CN(Cc2cc3cc4c(cc3[nH]c2=O)OCCO4)Cc2nnnn2Cc2ccco2)cc1, the Potency is reported as inconclusive [inhibitor, single point]. With Cc1ccc(-c2cc(C(=O)OCC(=O)N(C)c3c(N)n(Cc4ccccc4)c(=O)[nH]c3=O)c3ccccc3n2)o1 the Potency was inconclusive [inhibitor, single point]. For O=C(O)CSc1nc(C(F)(F)F)cc(=O)n1-c1ccccc1, the “activity change, negative = growth inhibition” value was inactive: 1.68%. For COc1ccc(NS(=O)(=O)c2ccc(-c3coc(C)n3)cc2)cc1OC, the Potency was active: 4.11 µM. With CC[C@]12c3[nH]c4ccccc4c3CCN1C(=O)C(CC(=O)NCCCN(C)C)C[C@@H]2C(=O)N1CCN(C(=O)C2CC2)CC1 (some centres not stated) the “activity change, negative = growth inhibition” value was inactive: -8.35%. With Cc1ccc(S(=O)(=O)NCC(=O)OCC(=O)NC(=O)NC2CCCC2)cc1 the “activity change, negative = growth inhibition” value was inactive: -16.2%. With CSc1nc(SCC(=O)NCC2CCCO2)c2c3c(sc2n1)CN(C)CC3 (configuration not stated) the “activity change, negative = growth inhibition” value was inactive: 2.27%. For CCN(CC)C(=O)c1ccccc1NC(=O)c1cccc(S(=O)(=O)N(CC)CC)c1, the “activity change, negative = growth inhibition” value was inactive: -16.2%. In the case of COC(=O)c1ccc2ccccc2c1OC1OC(CO)C(O)C(O)C1NC(C)=O (configuration not stated), the “activity change, negative = growth inhibition” value is reported as inactive: -14.5%. In the case of CC1(Cc2ccc(Cl)cc2)C(=O)Nc2ccc(S(=O)(=O)NC3CCCCC3)cc21 (configuration not stated), the Potency is reported as inconclusive [inhibitor, single point]. With CC(=O)NC(c1ccc(F)c(F)c1)c1nc(-c2cc3ccccc3o2)cs1 (configuration not stated) the “activity change, negative = growth inhibition” value was inactive: -3.87%. For CCc1nc2ccc(C(=O)Nc3ccc4c(c3)OCO4)cc2nc1CC, the Potency was inconclusive [inhibitor, single point]. In the case of O=C(CSc1nnc2c(n1)[nH]c1ccc(S(=O)(=O)N3CCOCC3)cc12)Nc1ccccc1Cl, the Potency is reported as inconclusive [inhibitor, partial curve]. With CCOc1ccccc1NC(=O)CSc1nc2c(sc3ccccc32)c(=O)n1CCCC(=O)NC1CCCC1 the Potency was inconclusive [inhibitor, partial curve]. For CCOC(=O)C1=C(c2ccccc2)N=c2s/c(=C\c3ccc(O)cc3)c(=O)n2C1c1cccs1 (configuration not stated), the Potency was active: 11.6 µM. For Cc1cccc2cc(CN(Cc3ccco3)C(=O)c3ccncc3)c(=O)[nH]c12, the “activity change, negative = growth inhibition” value was inactive: -16.8%. For CC(C)C[C@H](NC(=O)c1nc[nH]c1C(=O)NCc1ccccc1)C(=O)OCc1ccccc1, the Potency was inconclusive [inhibitor, single point].

Reference: PubChem BioAssay AID686979 (National Center for Advancing Translational Sciences (NCATS), 2013)
On the % scale 0 is the no-effect control and ±100 the full control effect; potency means the concentration at half of the fitted maximal effect; tags describe the fitted curve by direction and shape.
